{"source": "the supplement of paper PMC9446081", "note": "Among all 39,000 compounds or so, about 220 (0.56%) showed activity. The list shows a part of the results.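 Also: static incubation at 37 °C against the wild-type strain, values averaged over two biological replicates.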", "data": [{"system": "Escherichia coli K-12 BW25113", "experiment": "relative growth (OD600 normalised to plate interquartile mean) (fraction); higher = less growth inhibition, active = 0.2 or less", "conditions": "50 µM; LB; incubation time: overnight (16-24 h)", "values": [{"smiles": "C[C@@H]1CCCCO[C@H](CN(C)C)[C@H](C)CN([C@H](C)CO)C(=O)c2cc(NS(=O)(=O)c3cn(C)cn3)ccc2O1", "relative growth": "inactive: 0.976"}, {"smiles": "Nc1ncnc2c1CCC2", "relative growth": "inactive: 1"}, {"smiles": "C[C@@H]1CN([C@H](C)CO)C(=O)c2cccc(NC(=O)Nc3ccc(F)cc3)c2O[C@H]1CN(C)C(=O)Nc1cccc2ccccc12", "relative growth": "inactive: 0.997"}, {"smiles": "COc1ccc(CN(C)C[C@@H]2OCCCC[C@@H](C)Oc3ccc(NC(=O)Nc4cccc5ccccc45)cc3C(=O)N([C@H](C)CO)C[C@H]2C)cc1", "relative growth": "inactive: 0.993"}, {"smiles": "Cc1noc(C)c1S(=O)(=O)Nc1ccc2c(c1)C(=O)N([C@@H](C)CO)C[C@@H](C)[C@@H](CN(C)S(=O)(=O)c1cn(C)cn1)OCCCC[C@H](C)O2", "relative growth": "inactive: 1.04"}, {"smiles": "Cc1noc(C)c1NC(=O)Nc1ccc2c(c1)C(=O)N([C@H](C)CO)C[C@@H](C)[C@H](CN(C)Cc1ccccc1)OCCCC[C@@H](C)O2", "relative growth": "inactive: 0.974"}, {"smiles": "C[C@H](CO)N1C[C@H](C)[C@@H](CN(C)S(=O)(=O)c2ccc(Cl)cc2)Oc2ccc(NC(=O)Nc3cccc4ccccc34)cc2C1=O", "relative growth": "inactive: 0.934"}, {"smiles": "O=C(Nc1ccc(-c2nc3ccc(NC(=O)c4ccc(NC(=O)c5cccc6ccccc56)cc4)cc3[nH]2)cc1)c1ccc(NC(=O)c2cccc3ccccc23)cc1", "relative growth": "inactive: 1.02"}, {"smiles": "C[C@@H]1CN([C@@H](C)CO)C(=O)c2cccc(NS(=O)(=O)c3ccc(Cl)cc3)c2O[C@@H]1CN(C)Cc1ccc(-c2ccccc2)cc1", "relative growth": "inactive: 0.98"}, {"smiles": "CCCNC(=O)N(C)C[C@@H]1Oc2cc(C#Cc3cccc(F)c3)ccc2S(=O)(=O)N([C@@H](C)CO)C[C@H]1C", "relative growth": "inactive: 1"}, {"smiles": "C[C@@H]1CN([C@@H](C)CO)C(=O)c2cc(NC(=O)c3ccccc3)ccc2O[C@@H](C)CCCCO[C@@H]1CN(C)C(=O)Nc1ccc(C(F)(F)F)cc1", "relative growth": "inactive: 1.02"}, {"smiles": "C[C@@H]1CN([C@H](C)CO)C(=O)c2cccc(NC(=O)Nc3ccc4c(c3)OCO4)c2O[C@H]1CN(C)C(=O)Nc1ccc(C(F)(F)F)cc1", "relative growth": "inactive: 0.913"}, {"smiles": "C[C@H](CO)N1C[C@H](C)[C@@H](CN(C)C(=O)Nc2ccccc2)Oc2cc(Br)ccc2S1(=O)=O", "relative growth": "inactive: 0.95"}, {"smiles": "COc1ccc(S(=O)(=O)Nc2cccc3c2O[C@H](CN(C)C(=O)NC(C)C)[C@H](C)CN([C@H](C)CO)C3=O)cc1", "relative growth": "inactive: 1"}, {"smiles": "Cc1noc(C)c1S(=O)(=O)N(C)C[C@H]1Oc2ccc(NC(=O)NC3CCCCC3)cc2CC(=O)N([C@H](C)CO)C[C@@H]1C", "relative growth": "inactive: 0.986"}, {"smiles": "COc1ccc(C(=O)C=Cc2ccccc2)cc1", "relative growth": "inactive: 0.991"}, {"smiles": "C[C@H]1CN([C@@H](C)CO)C(=O)c2cc(NC(=O)c3ccncc3)ccc2O[C@@H]1CN(C)Cc1ccc(-c2ccccc2)cc1", "relative growth": "inactive: 0.998"}, {"smiles": "Cc1noc(C)c1NC(=O)Nc1ccc2c(c1)C(=O)N([C@@H](C)CO)C[C@@H](C)[C@H](CN(C)Cc1ccncc1)OCCCC[C@H](C)O2", "relative growth": "inactive: 0.993"}, {"smiles": "O=C(C[C@@H]1CC[C@H]2[C@@H](COC[C@H](O)CN2S(=O)(=O)c2ccc(Cl)cc2)O1)N[C@H]1CCN(Cc2ccccc2)C1", "relative growth": "inactive: 0.998"}, {"smiles": "C[C@@H]1CN([C@@H](C)CO)C(=O)c2cc(NC(=O)CCCN(C)C)ccc2O[C@@H]1CN(C)S(=O)(=O)c1ccc(F)cc1", "relative growth": "inactive: 1.01"}, {"smiles": "COCCNC(=O)C[C@@H]1CC[C@H]2[C@@H](COC[C@H](O)CN2S(=O)(=O)c2ccccc2F)O1", "relative growth": "inactive: 0.994"}, {"smiles": "COc1ccc(S(=O)(=O)N(C)C[C@H]2OCc3cnnn3CCCC(=O)N([C@H](C)CO)C[C@@H]2C)cc1", "relative growth": "inactive: 0.928"}, {"smiles": "COCc1cn(CC[C@@H]2CC[C@@H](NC(=O)CCN3CCCCC3)[C@H](CO)O2)nn1", "relative growth": "inactive: 0.983"}, {"smiles": "CC(C)NC(=O)N(C)C[C@@H]1Oc2ccc(NS(=O)(=O)c3cn(C)cn3)cc2CC(=O)N([C@H](C)CO)C[C@@H]1C", "relative growth": "inactive: 0.971"}, {"smiles": "C[C@@H]1CN([C@H](C)CO)C(=O)Cc2cc(NC(=O)Nc3cccc4ccccc34)ccc2O[C@@H]1CN(C)Cc1ccc(C(=O)O)cc1", "relative growth": "inactive: 0.994"}, {"smiles": "C[C@@H]1O[C@@H](OC[C@H]2O[C@@H](OCCc3ccccc3)[C@H](O)[C@@H](O)[C@@H]2O)[C@H](O)[C@H](O)[C@H]1O", "relative growth": "inactive: 0.954"}, {"smiles": "Cc1noc(C)c1S(=O)(=O)N(C)C[C@@H]1Oc2ccc(NS(=O)(=O)c3ccc(F)cc3)cc2CC(=O)N([C@@H](C)CO)C[C@@H]1C", "relative growth": "inactive: 0.975"}, {"smiles": "C[C@H]1CN([C@@H](C)CO)C(=O)c2cc(NS(=O)(=O)c3cccs3)ccc2O[C@@H]1CN(C)S(=O)(=O)c1cn(C)cn1", "relative growth": "inactive: 0.999"}, {"smiles": "CC(C)CC#Cc1cnc2c(c1)C(=O)N([C@@H](C)CO)C[C@@H](C)[C@H](CN(C)C(=O)c1ccc3c(c1)OCO3)O2", "relative growth": "inactive: 0.969"}, {"smiles": "O=S(=O)(C1CCCCC1)C1CNC1", "relative growth": "inactive: 0.977"}, {"smiles": "COc1ccc(S(=O)(=O)N(C)C[C@@H]2Oc3ccc(NC(=O)NC(C)C)cc3CC(=O)N([C@H](C)CO)C[C@@H]2C)cc1", "relative growth": "inactive: 1.03"}, {"smiles": "CN1CCN(C(=O)C[C@@H]2CC[C@@H]3[C@H](COc4ccc(NC(=O)c5cscn5)cc4C(=O)N3C)O2)CC1", "relative growth": "inactive: 0.913"}, {"smiles": "NNC(=O)c1nc(-c2ccccc2)no1", "relative growth": "inactive: 0.977"}, {"smiles": "C[C@@H]1CCCCO[C@H](CN(C)CC2CCCCC2)[C@H](C)CN([C@@H](C)CO)C(=O)c2cc(NS(=O)(=O)c3cccs3)ccc2O1", "relative growth": "inactive: 1.01"}, {"smiles": "C[C@@H]1CCCCO[C@@H](CN(C)Cc2ccc(C(F)(F)F)cc2)[C@@H](C)CN([C@@H](C)CO)C(=O)c2cc(NS(=O)(=O)c3ccc(F)cc3)ccc2O1", "relative growth": "inactive: 1.06"}, {"smiles": "C[C@H](CO)N1C[C@H](C)[C@@H](CN(C)C(=O)NC2CCCCC2)OCCCC[C@H](C)Oc2ccc(NS(=O)(=O)c3ccc(Cl)cc3)cc2C1=O", "relative growth": "inactive: 1.02"}, {"smiles": "CO[C@H]1CN(C)C(=O)c2ccc(NS(=O)(=O)c3ccccc3)cc2OC[C@H](C)N(C(=O)NC(C)C)C[C@@H]1C", "relative growth": "inactive: 0.969"}]}]}
